PMC4336329 (PLoS ONE, 2015)
Hit rate of the full screen: of about 310,000 compounds, about 2,200 (0.71%) showed an effect of 50% or more. Effects have a minus sign here. Some of the results follow.

Target: human ether-à-go-go-related gene (hERG) potassium channel (human, UniProt Q12809)
Assay: primary screen, population patch clamp on CHO cells stably expressing hERG

Chain of human ether-à-go-go-related gene (hERG) potassium channel (Q12809 whole entry, looked up): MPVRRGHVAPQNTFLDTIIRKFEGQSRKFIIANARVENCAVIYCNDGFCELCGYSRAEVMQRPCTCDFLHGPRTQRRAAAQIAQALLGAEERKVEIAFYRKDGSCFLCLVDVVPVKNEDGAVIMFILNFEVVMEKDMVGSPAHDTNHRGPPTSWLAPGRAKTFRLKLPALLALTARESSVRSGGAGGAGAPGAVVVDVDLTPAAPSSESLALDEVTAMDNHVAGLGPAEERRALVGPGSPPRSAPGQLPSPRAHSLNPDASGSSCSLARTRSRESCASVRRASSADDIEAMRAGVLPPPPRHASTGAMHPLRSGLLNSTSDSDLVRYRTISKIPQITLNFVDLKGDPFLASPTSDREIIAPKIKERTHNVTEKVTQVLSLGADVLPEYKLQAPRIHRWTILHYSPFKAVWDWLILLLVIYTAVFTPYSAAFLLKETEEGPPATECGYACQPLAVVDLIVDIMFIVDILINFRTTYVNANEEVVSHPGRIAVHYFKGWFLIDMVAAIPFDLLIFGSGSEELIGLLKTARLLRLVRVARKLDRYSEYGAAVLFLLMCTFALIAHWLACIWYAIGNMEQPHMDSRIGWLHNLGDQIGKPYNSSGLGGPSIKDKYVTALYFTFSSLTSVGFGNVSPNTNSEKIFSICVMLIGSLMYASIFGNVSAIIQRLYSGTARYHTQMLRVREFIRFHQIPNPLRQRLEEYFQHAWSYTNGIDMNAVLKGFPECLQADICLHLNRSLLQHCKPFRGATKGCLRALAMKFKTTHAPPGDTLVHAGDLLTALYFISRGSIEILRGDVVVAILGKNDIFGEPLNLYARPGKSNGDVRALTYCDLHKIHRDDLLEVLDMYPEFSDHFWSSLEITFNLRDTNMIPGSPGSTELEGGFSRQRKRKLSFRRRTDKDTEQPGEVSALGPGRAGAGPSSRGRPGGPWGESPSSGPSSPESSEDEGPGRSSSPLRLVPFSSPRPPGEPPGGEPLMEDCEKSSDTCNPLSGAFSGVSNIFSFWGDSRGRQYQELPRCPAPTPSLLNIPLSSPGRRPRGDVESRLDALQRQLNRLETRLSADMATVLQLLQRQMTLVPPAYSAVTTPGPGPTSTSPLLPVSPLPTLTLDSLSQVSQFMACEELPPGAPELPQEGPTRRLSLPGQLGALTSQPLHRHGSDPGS

Row | Structure (SMILES) | hERG current change (%, negative = inhibition) at 1uM [%]
1 | CCC(=O)N1c2ccc(S(=O)(=O)NCCc3ccc(C)cc3)cc2CC1C (centres unmarked) | 14.8
2 | O=C(NCCCN1CCOCC1)C(=O)NCC1OCCN1S(=O)(=O)c1cc(F)ccc1F (centres unmarked) | 4.55
3 | CCOc1ccc(Cl)cc1S(=O)(=O)N1CCC(C(=O)NCc2cccnc2)CC1 | 0.0673
4 | Cc1ccccc1CS(=O)(=O)CCC(=O)NCCCN1CCN(c2ccccc2F)CC1 | -25.7
5 | COc1ccc(OC)c2c1sc(=NC(=O)C(C)(C)C)n2C | 12.3
6 | Cl.Clc1ccccc1C(c1nnnn1Cc1ccco1)N1CCN(Cc2ccco2)CC1 (centres unmarked) | -4.76
7 | CCCCCCCC(=O)Nc1cc(C(=O)NCc2ccc(C)cc2)ccc1N1CCC2(CC1)CC(c1cccc(Br)c1)=NO2 | 5.58
8 | CN(C(=O)CSc1nc(O)cc(=O)n1-c1ccccc1F)c1ccccc1 | 12.2
9 | Fc1ccc(Sc2cc(Cl)c(-c3ccccc3)nn2)cc1 | -0.417
10 | NC(=O)C1CCN(CC(=O)N2c3ccccc3CCc3ccccc32)CC1 | 16.6
11 | COc1cccc(-c2ccc(NC(=O)C3CCCN(Cc4cc(C)[nH]n4)C3)cc2)c1 (centres unmarked) | 8.91
12 | O=C(N/N=C/c1cccc2ccccc12)C(=O)N1CCCC1 | 17
13 | O=C(NC1CCCc2ccccc21)c1ccc(CNc2c(N3CCOCC3)c(=O)c2=O)cc1 (centres unmarked) | 8.17
14 | O=C(CSc1nc2cc(Cl)ccc2o1)c1cccs1 | 5.19
15 | CC1Oc2ccccc2N(Cc2cccc(F)c2)C1=O (centres unmarked) | 9
16 | COc1cccc(-c2cc(C(F)(F)F)n3ncc(C(=O)NCC4CCCO4)c3n2)c1 (centres unmarked) | -4.43
17 | Cc1ccc2c(c1)NC(=O)C(N1CCOCC1)(C(F)(F)F)O2 (centres unmarked) | 15.3
18 | C=CCN1C(=O)C(CC(=O)NCC)SC1=Nc1ccccc1OC (centres unmarked) | 16.5
19 | COc1ccc(C2=NOC(CNC(=O)c3ccccc3Br)C2)c(OC)c1 (centres unmarked) | 11.4
20 | CC(C)CCCn1c(O)c(/C=C2/C=CC=N2)c(=O)[nH]c1=O | 14.1
21 | COc1ccc(OC)c(C2NC(=S)NC3=C2N2CCC3CC2)c1 (centres unmarked) | 12.3
22 | COc1ccccc1N1CCN(S(=O)(=O)c2cn(C)c(=O)n(C)c2=O)CC1 | 13.3
23 | C=CCn1c(C)cc(-c2csc(N)n2)c1C.Cl | 4

Row | Structure (SMILES) | hERG current change (%, negative = inhibition) at 1uM [%]
24 | CN(C(=O)c1cccnc1)c1nnc(-c2cnccn2)s1 | 9.84
25 | CCN1CCN(CC(=O)Nc2cccc(C)c2)C(=O)C1=O | 14.7
26 | CCN(C(=O)C(C)Cl)c1ccccc1 (centres unmarked) | 12.8
27 | N#Cc1c(N)nc2c(c1N)CC(COc1ccccc1)O2 (centres unmarked) | 2.9
28 | COc1ccccc1OCCn1c(SCC(N)=O)nc2ccccc21 | 10.5
29 | O=C(NCCSCc1ccco1)Nc1cc(Cl)cc(Cl)c1 | 16.8
30 | Clc1cccc(Cl)c1/C=N/Nc1c(Cl)cncc1Cl | 5.36
31 | O=C(Nc1cccc2nsnc12)c1ccc(F)cc1 | 0.596
32 | O=C(CSCCS(=O)(=O)c1ccc(Cl)cc1)Nc1ccccc1 | 8.86
33 | COc1ccc(NC(=O)c2cc(S(=O)(=O)N3CCCC3)c[nH]2)cc1 | 17.5
34 | CC(C)(C)NC(=O)CSc1nnc(CN2CCCCCC2=O)n1-c1ccccn1 | 6.12
35 | Cc1ccc(C(=O)NCC(=O)OCC(=O)NC(C)c2ccccc2)s1 (centres unmarked) | 2.94
36 | COc1ccc(CCN2CC(C(=O)NCc3ccccc3)CCC2=O)cc1 (centres unmarked) | 10.7
37 | O=C(CSc1ncnc2sc3c(c12)CCC3)NCC1CCCO1 (centres unmarked) | 14.1
38 | COc1cccc(OC)c1-c1nn2c(-c3ccco3)nnc2s1 | 3.07
39 | CN(CC(=O)Nc1ccccc1Br)C(=O)c1cccc([N+](=O)[O-])c1 | 0.512
40 | COCCNC(=O)c1onc(CSc2ccccc2)c1C(=O)NCCOC | 10.5
41 | O=C(N/N=C1\CC2CC=CC12)c1ccc(O)cc1 (centres unmarked) | 10.2
42 | CCOC(=O)N1CCC(NC(=O)CSCc2nc(-c3cccc(OC)c3)oc2C)CC1 | -4.02
43 | Cc1ccc(-c2nc3ccccc3c(=O)n2CCN2CCOCC2)cc1 | -4.88
44 | O=C(NCCc1ccc(Cl)cc1)C1CCN(S(=O)(=O)c2ccc(Br)s2)CC1 | 3.54
45 | O=C(COc1ccc(C(=S)N2CCCC2)cc1)Nc1ccccc1C(F)(F)F | 4.01
46 | CCOC(=O)c1ccc(NC(=O)NNC(=O)CCc2ccc(OC)cc2)cc1 | 16.8

Row | Structure (SMILES) | hERG current change (%, negative = inhibition) at 1uM [%]
47 | NS(=O)(=O)c1ccc(CNS(=O)(=O)c2ccc3c(c2)OCCO3)cc1 | 4.59
48 | S=c1nc[nH]c2c1cnn2Cc1ccccc1 | 17.9
49 | O=C(Cc1ccccc1)Nc1ccccc1Sc1ccccc1 | 7.77
50 | COc1ccc(CNc2cc(C)nc3ccc(OC)cc23)cc1 | -18.9
51 | Clc1ccc(N2CCN(c3ncnc4c3oc3ccccc34)CC2)cc1 | 12.2
52 | N#Cc1c(-c2ccco2)cc(-c2cccnc2)nc1N | 7.62
53 | CC(Sc1nnc(-c2cccs2)n1Cc1ccccc1)C(=O)NCc1ccc2c(c1)OCO2 (centres unmarked) | 0.773
54 | C=C(C)c1cccc(C(C)(C)NC(=O)Nc2ccc(C(N)=O)cc2)c1 | 7.17
55 | COC(=O)C1=NN(c2ccccc2)C2(S1)SC(C(C)=O)=C(C)N2c1ccccc1 (centres unmarked) | -13.5
56 | C[C@@H]1O[C@@H]1P(=O)([O-])[O-].[Na+] | 12.8
57 | O=[N+]([O-])c1cc(-c2cnc3ccccc3n2)ccc1Oc1ccc(Br)cc1 | -12.1
58 | CCOC(=O)N1CCC(Nc2c(NCCCN3CCN(CC)CC3)c(=O)c2=O)CC1 | 8.96
59 | COc1ccc(OC)c(NC(=O)N2CCCC(C)C2)c1 (centres unmarked) | 4.69
60 | CC(C)c1ccc(CN2C(=O)NC3(CCCCCC3)C2=O)cc1 | 8.36
61 | CN(C)CCCNC(=O)c1cc(C(=O)c2c(Cl)cccc2Cl)c[nH]1 | 1.8
62 | CCOc1ccc(C(=O)/C=C/Nc2ccc(S(=O)(=O)Nc3cc(C)nc(C)n3)cc2)cc1 | 8.37
63 | CC(C)(C)NC(=O)NC(=O)CN1CCCCCCC1 | 10.7
64 | COc1c(F)c(F)c(C(=O)Nc2ccccc2N2CCN(C(C)=O)CC2)c(F)c1F | 1.21
65 | Cc1ccc(S(=O)(=O)Nc2ccc3c(c2)n(C)c(=O)n3C)cc1 | -4.59
66 | CCOc1cc(S(=O)(=O)NCC2CCCO2)ccc1F (centres unmarked) | 14.7
67 | C=CCS/C(N)=N\N=C\c1cc(Br)cc([N+](=O)[O-])c1O | 11
68 | CC1(C)CC[C@]2(C(=O)O)CC[C@]3(C)C(=CCC4[C@@]5(C)CC[C@H](O)C(C)(C)C5CC[C@]43C)C2C1 (some centres unmarked) | 16.8
69 | C=CCN(C(=O)c1ccc2c(c1)nnn2C)c1ccccc1 | 8.05

Row | Structure (SMILES) | hERG current change (%, negative = inhibition) at 1uM [%]
70 | COc1ccc(CCNC(=O)c2cnc3n(c2=O)CCS3)cc1OC | 4.64
71 | COc1cccc(C2=NCCc3cc4c(cc32)OCO4)c1OC | 10.5
72 | CCCCCCSc1nc(O)c(C2OC(=O)c3c2ccc(OC)c3OC)c(=O)n1CC (centres unmarked) | 13.4
73 | CCc1c(O)nc(N2CCN(Cc3ccccc3)CC2)[nH]c1=O | 5
74 | Cc1ccc(S(=O)(=O)N(CCO)c2cc3c(s2)CCCC3)cc1 | 6
75 | CCCC(=O)Nc1cc(-c2nn(C)c(=O)c3ccccc23)ccc1N1CCCCC1 | -15.2
76 | O=C(CSCc1ccc(Cl)cc1)Nc1nccs1 | 7
77 | Cc1ccccc1CSCC(=O)NCCSc1ccccn1 | 9.46
78 | Cc1ccc(CNC(=O)C2CC(=O)N(c3ccc(OCC(=O)N4CCCC4)cc3)C2)cc1 (centres unmarked) | 19
79 | C=CCN1CCN(C(c2ccccc2OC)c2nnnn2C(C)(C)C)CC1.Cl (centres unmarked) | 8.65
80 | CCN(CC)S(=O)(=O)c1ccc2c(c1)nc(SCC(=O)N1CCOCC1)n2-c1ccccc1OC | 3.53
81 | Cc1ccc(S(=O)(=O)N2CCN(c3ccc(N4CCOCC4)nn3)CC2)cc1[N+](=O)[O-] | 4.85
82 | CN(C)c1ccc(/C=N/Nc2nncc3ccccc23)cc1 | 13.9
83 | O=C(Nc1ccc(Cl)cn1)c1cccc2c(Br)cccc12 | 4.32
84 | CC(C)=C1C2CCC1C1C(=O)N(c3nc(-c4ccc(F)cc4)c(C)s3)C(=O)C21 (centres unmarked) | 8.65
85 | CC(C)N1CC(COc2ccccc2Cl)OC1=O (centres unmarked) | 9.29
86 | Cc1ccc2nc(-c3ccc(NC(=O)CSCC(=O)O)cc3)sc2c1 | 10.9
87 | COc1ccc(N(CCCN2C(=O)c3cccc4cccc(c34)C2=O)C(=O)c2cccnc2)cc1 | 6.64
88 | O=C(CCNC(=O)c1ccccc1Cl)NCc1cccnc1 | 6.98
89 | COc1ccc(/C=C/C(=O)NC(=S)NNC(=O)[C@H]2C[C@@H]2c2ccccc2)cc1OC | 12.6
